# Source: PubChem BioAssay AID1347073 (National Center for Advancing Translational Sciences (NCATS), 2019)
# The campaign covered roughly 45,000 compounds. About 200 (0.44%) were called active. Inconclusive results (about 7%) are left out. Calls follow the shape of the dose curve; as a rule, active = well fitted activation curve with a large enough effect; inconclusive = small, poorly fitted or top-dose-only effect; inactive = no such curve, though single readings can be large or run the other way. The list shows a part of the results.
# Experiment: qHTS of TDP-43 Inhibitors: NCGC Sytravon Library Screen; also: 0% is about no effect; nearly all actives have a fitted effect of over 55% in size
# Conditions: yeast TDP-43 toxicity rescue, BacTiter-Glo growth, 24 h; series mostly up to 46.1 µM; growth rescue (activation): at the top concentration
# How it was run: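 TDP-43-expressing yeast, pregrown in raffinose, seeded at OD600 0.02 in galactose medium with compound for 24 hr at 30 deg C. Growth read by BacTiter-Glo luminescence, so rescue of toxicity appears as activation.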
row,SMILES,growth rescue (activation)
1,CCCc1nc(SCc2ccc(OCC)cc2)n[nH]1,inactive: 16.5%
2,CCOC(=O)c1ccc2c(c1)nc(-c1ccc(F)cc1)c1nccn12,inactive: 0.578%
3,CSc1nnc(C(C)(C)C)c(=O)n1/N=C/c1ccc(C(C)C)cc1,inactive: -7.85%
4,COc1ccccc1NS(=O)(=O)c1cccc2nsnc12,inactive: 13.1%
5,COc1cc(/C=N/N2C(C)CCCC2C)cc(Br)c1O (stereo not drawn),inactive: 5.37%
6,CN(C)CCCn1c(=S)[nH]c2ccccc2c1=O,inactive: -6.09%
7,O=C(CCCN1C(=O)/C(=C\c2cccs2)SC1=S)NNC(=O)c1cccnc1,inactive: 2.4%
8,O=C(N/N=C/c1ccc(C(F)(F)F)cc1)c1ccc(O)cc1,inactive: 19.5%
9,COc1ccc(NC(=O)C/C(C)=N/NC(=O)c2cnccn2)c(OC)c1,inactive: -17%
10,Cc1ccc(C)c(S(=O)(=O)N2CCN(Cc3ccc(O)c4ncccc34)CC2)c1,inactive: 18.9%
11,COc1ccc(-n2nnnc2SCC(=O)N(C)C2CCS(=O)(=O)C2)cc1 (stereo not drawn),inactive: 1.66%
12,Cc1cc(C(=O)CN2C(=O)NC3(CCCc4sccc43)C2=O)c(C)n1-c1ccc(Cl)cc1 (stereo not drawn),inactive: 9.4%
13,O=C(COc1ccc(S(=O)(=O)NC2CCCC2)cc1)NCC1CCCO1 (stereo not drawn),inactive: 8.49%
14,CCCC(c1nnnn1C(C)(C)C)N1CCN(Cc2ccccc2OC)CC1 (stereo not drawn),inactive: 0.446%
15,CCOC(=O)c1ccc(N2C(=O)c3n[nH]c(C)c3C2c2ccco2)cc1 (stereo not drawn),inactive: -14.7%
16,Cc1cc(NC(=O)c2ccc(Cl)c(S(=O)(=O)N3CCOCC3)c2)no1,inactive: 2.2%
17,O=C(CCCN1C(=O)/C(=C\c2cccs2)SC1=S)Nc1ccc(C(=O)O)cc1,inactive: -15.7%
18,CCOc1ccc(CN2CCN(Cc3ccsc3)C(CCO)C2)cc1CO (stereo not drawn),inactive: 14.6%
19,O=C(Cc1cccc2ccccc12)Nc1cc(Cl)ccc1C(=O)O,inactive: 5%
20,COc1ccc(NC(=O)CN2CCCN(S(=O)(=O)c3ccc(F)cc3)CC2)c(OC)c1,inactive: 8.55%
21,CCn1cc(C(=O)OCC(=O)Nc2cccc(Cl)c2Cl)c(=O)c2ccc(C)nc21,inactive: 36.2%
22,COc1ccc(OC)c(Cc2nnc(CCC(=O)NC3C4CC5CC(C4)CC3C5)o2)c1 (stereo not drawn),inactive: 9.41%
23,O=C(O)c1cccc(S(=O)(=O)N2CCCC(c3nc4c(nnn4Cc4ccc(F)cc4)c(=O)[nH]3)C2)c1 (stereo not drawn),inactive: 14.8%
24,CCS(=O)(=O)N1Cc2ccccc2CC1C(=O)Nc1nnc(SCc2ccc(C#N)cc2)s1 (stereo not drawn),inactive: -22.5%
25,N#C/C(=C/c1ccc(N2CCCCC2)o1)C(=O)NCCc1c[nH]c2ccccc12,inactive: 14%
26,COCCNc1nnc(SCC(=O)Nc2sc3c(c2C(=O)c2ccccc2)CCCC3)s1,inactive: 25.2%

row,SMILES,growth rescue (activation)
1,O=C(NC1CCCC1)c1cc(-c2cccc(Cl)c2)on1,inactive: 27.9%
2,O=c1cnnc(Nc2ccc(F)cc2)[nH]1,inactive: 1.41%
3,Cc1nc(C(F)(F)F)ccc1C(=O)N1CCCCCC1(C)C(=O)NCC(C)C (stereo not drawn),inactive: -8.81%
4,Cc1nc2ccccc2nc1OCC(=O)NCC(F)(F)F,inactive: 4.55%
5,CCOc1ccc(OCC)c(NC(=O)CCSCCc2ccccn2)c1,inactive: -4.73%
6,COc1cc(C)ccc1S(=O)(=O)NC(=O)C1(C)CCN1C(=O)COc1ccc(Cl)cc1 (stereo not drawn),inactive: 6.53%
7,Cc1ccc(N2CC(C(=O)Nc3nc4ccc(S(C)(=O)=O)cc4s3)CC2=O)cc1C (stereo not drawn),inactive: 4.91%
8,CCC(=O)NCCc1nc2cc(NC(=O)c3ccccc3Cl)ccc2n1C,inactive: -16.2%
9,O=C(O)c1cc(-c2cccc(Cl)c2)nc2nc(N3CCCCC3)sc12,inactive: -3.88%
10,C=CCc1cccc(/C=N/NC(=O)CCC(=O)Nc2ccc(C)cc2)c1O,inactive: -9.81%
11,COc1ccc(C(C)=O)cc1CSc1ncccn1,inactive: 25.3%
12,CCOc1ccc(Cl)cc1S(=O)(=O)N1CCC(C(=O)NCc2cccnc2)CC1,inactive: -5.14%
13,CCN1CC(CN(C)Cc2cn(-c3ccc(C)cc3)nc2-c2cccc(C)c2)CC1=O (stereo not drawn),inactive: 7.14%
14,CN(C)C(=O)c1nc2ccc(Cl)cn2c1CNCc1ccccc1OC(F)(F)F,inactive: -6.08%
15,N#C/C(=C\c1cn(Cc2cccc(F)c2)c2ccccc12)C(=O)NCc1ccco1,inactive: -3.86%
16,Cc1nnc(SCc2ccccc2)c2cc3sccc3n12,inactive: 25.4%
17,CCOC(=O)C(=O)N1CCN(CC)CC1,inactive: 6.73%
18,O=C(CN1CCN(C(=O)CN2C(=O)NC3(CCCC3)C2=O)CC1)Nc1cccc(F)c1,inactive: 34.4%
19,O=C(/C=C/Nc1ccc(Br)cc1F)c1ccccc1,inactive: -10.3%
20,Cc1ccc(NC(=O)C2Cc3ccccc3CN2C(=O)c2ccco2)cc1S(=O)(=O)N(C)C (stereo not drawn),inactive: -0.631%
21,COc1nccnc1NS(=O)(=O)c1ccc(NC(=O)c2ccc(F)cc2)cc1,inactive: 11.4%
22,Cc1ccc(NC(=O)CCC(=O)N/N=C/C=C/c2ccccc2)cc1,inactive: 7.91%
23,COc1ccccc1C(C)NC(=O)Cc1ccsc1 (stereo not drawn),inactive: 9.28%
24,COc1ccc(N2C(=O)C(Cl)=C(Nc3ccccc3OC)C2=O)cc1,inactive: 17.7%
25,COc1ccc(NC(=S)NCC(O)c2ccccc2)c(OC)c1 (stereo not drawn),inactive: -7.24%
26,O=C1[C@@H]2[C@@H]3C[C@@H]([C@H]4ON=C(c5ccc(OCc6ccccc6)cc5)[C@@H]34)[C@@H]2C(=O)N1c1ccc2c(c1)OCO2,inactive: 27.1%

row,SMILES,growth rescue (activation)
1,CCCCc1ccc(S(=O)(=O)NC(=O)C2(C)CCN2C(=O)CC2CC2)cc1 (stereo not drawn),inactive: 2.43%
2,O=C(Nc1ccccc1C(=O)N1CCCCC1)c1ccccc1C(F)(F)F,inactive: 24.1%
3,COc1ccc(CCNC(=O)C2CCCN(C(=O)c3ccc(Cl)cc3)C2)cc1 (stereo not drawn),inactive: -16.7%
4,COCc1c(C(=O)Nc2cccc(S(=O)(=O)N3CCCCC3)c2)oc2ccccc12,inactive: -1.93%
5,COC(=O)c1c(C)[nH]c(C(=O)OCC(=O)c2c(N)n(CC(C)C)c(=O)n(C)c2=O)c1C,inactive: -1.16%
6,Cc1ccc(S(=O)(=O)N(Cc2cc3cccc(C)c3[nH]c2=O)c2ccccc2)cc1,inactive: -2.28%
7,O=C(NNC(=O)c1ccc2c(c1)OCO2)NC12CC3CC(CC(C3)C1)C2,inactive: 4.01%
8,CCCn1nc(C(=O)N2CCN(c3ccccn3)CC2)c2ccccc2c1=O,inactive: -6.39%
9,CCOC(=O)C1(CCCc2ccccc2)CCN(C(=O)C2CCCO2)CC1 (stereo not drawn),inactive: 22.9%
10,CCOCCc1c(O)nc(SCC(=O)N2CCOCC2)[nH]c1=O,inactive: 4.85%
11,CC(=O)N1CCN(c2ccc(NC(=O)/C=C/c3ccccc3)cc2)CC1,inactive: 0.261%
12,O=C(NCCCNC(=O)c1ccccn1)c1ccc(Cl)cc1,inactive: -10.1%
13,Cc1cc(C)cc(NC(=O)CSc2nc3[nH]c(=O)cc(O)c3s2)c1,inactive: 4.49%
14,O=C(CNC(=O)c1ccccc1)N/N=C/c1cccs1,inactive: 0.716%
15,COc1ccccc1N(CC(=O)N1CCCC1)S(=O)(=O)c1ccc(C)cc1,inactive: 10%
16,CCOC(=O)C(Cc1ccccc1)C(=O)Nc1ccc(NC(=O)C(Cc2ccccc2)C(=O)OCC)cc1 (stereo not drawn),inactive: 7.28%
17,Cc1ccc(C(=O)N2CCN(C)CC2)cc1S(=O)(=O)N1CCOCC1,inactive: -11.5%
18,CCN(CC)CCN1C(=O)C(=O)/C(=C(/O)c2ccc(OC)cc2)C1c1ccco1 (stereo not drawn),inactive: 14.2%
19,CCOc1ccc(N(CC(=O)Nc2ccc(C)c(C)c2)S(=O)(=O)c2c(C)[nH]c(=O)[nH]c2=O)cc1,inactive: 6.79%
20,O=C(CNC(=O)c1ccccc1)NCC(O)c1ccc([N+](=O)[O-])cc1 (stereo not drawn),inactive: 2.18%
21,CC1(C)Oc2ccc(C(=O)N3CCOCC3)cc2N(CC(=O)N2CCOCC2)C1=O,inactive: 28.8%
22,NC(=O)c1cccc(-c2coc3c(C(=O)NCCc4ccccc4)cccc23)c1,inactive: 12.5%
23,N/C(=N\OC(=O)N1CCOCC1)c1ccc(Cl)cc1,inactive: 20%
24,O=C(NCc1cccnc1)NC(C(F)(F)F)C(F)(F)F,inactive: 24.3%
25,COC(=O)c1ccc(NC(=S)NC(=O)c2c(Cl)cnn2C)cc1,inactive: 11.7%
26,C/C(=C1/SC(=S)N(CCC(=O)O)C1=O)c1ccc(O)cc1,inactive: -8.18%

row,SMILES,growth rescue (activation)
1,CCS(=O)(=O)N1CCN(c2ncnc3sc(C)c(C)c23)CC1,inactive: 22.3%
2,O=C(Nc1ccccc1Cl)c1cc[n+]([O-])cc1,inactive: -13.4%
3,Cc1ccc(S(=O)(=O)Cn2nnnc2C(CC(C)C)N2CCN(C(=O)c3ccco3)CC2)cc1 (stereo not drawn),inactive: 8.74%
4,C=CCNC(=O)CSc1nnc(-c2ccccn2)n1Cc1ccccc1,inactive: -4.9%
5,CC1CCN(C2=C(NS(=O)(=O)c3ccc(Cl)cc3)C(=O)c3ccccc3C2=O)CC1,inactive: -10.2%
6,CCCOc1cccc(C(=O)NCCNC(=O)c2cnccn2)c1,inactive: 17.5%
7,Cc1cccc(OCc2n(CC(=O)OC3CC(C)CCC3C(C)C)c3ccccc3[n+]2C)c1 (stereo not drawn),inactive: 1.55%
8,CCCNC(=O)CCn1nc(-c2ccccc2)c2ccccc2c1=O,inactive: -0.531%
9,Cc1nc2ccccc2nc1N/N=C/c1ccc(O)cc1O,inactive: -2.43%
10,CCOc1ccccc1C1CC(=O)NC(SCC(=O)Nc2nccs2)=C1C#N (stereo not drawn),inactive: 9.17%
11,COc1ccccc1N1CCN(C(=O)/C=C/c2c(Cl)nc3ccccn23)CC1,inactive: 28.3%
12,NC(Cc1ccc(C(F)(F)F)cc1)c1csc(Nc2ccc(C(=O)NCCCO)cn2)n1 (stereo not drawn),inactive: 3.76%
13,CCc1cc2c(=O)c(-c3nc4ccccc4n3C)c(C)oc2c(CN(CC)CC)c1O,inactive: 9.29%
14,CCN(CC)S(=O)(=O)c1ccc(C(=O)OCC(=O)N2CCOCC2)cc1,inactive: 7.87%
15,COc1cc(C(=O)NC2Cc3ccccc3C2)ccc1OC1CCN(C(C)=O)CC1,inactive: 5.6%
16,CC(OC(=O)c1nsc(Cl)c1Cl)C(=O)NC1CCCCC1 (stereo not drawn),inactive: 11.3%
17,CC1(C)C2CC=C(/C=N/NC(=S)Nc3cccnc3)C1C2 (stereo not drawn),inactive: 6.84%
18,Cc1c(NC(=O)C(C)OC(=O)c2cccc(S(=O)(=O)N(C)C)c2)c(=O)n(-c2ccccc2)n1C (stereo not drawn),inactive: 14.4%
19,CCCCn1c(=O)[nH]c(=O)c2c1nc(-c1ccc(OC(F)F)c(OC)c1)n2C,inactive: -5.19%
20,Cc1ccc(-c2nc(NC(=O)CSc3ncnc4sc5c(c34)CCC(C)C5)ns2)cc1 (stereo not drawn),inactive: 2.85%
21,COCc1cccc(-c2csc(C(O)c3ccc(OC)cc3)n2)c1 (stereo not drawn),inactive: 29.5%
22,Cc1ccc(C)c(S(=O)(=O)/N=C(/Nc2ccccc2)c2ccccc2)c1,inactive: 37%
23,CCOC(=O)c1c(C)[nH]c(C(=O)COC(=O)c2ccc([N+](=O)[O-])o2)c1C,inactive: 13.2%
24,Cc1ccc(NC(=O)CN(C)C(=O)c2ccc(S(=O)(=O)N(C)c3ccccc3)cc2)cc1,inactive: -3%
25,COCCNC(=O)c1cccc(OC2CCN(Cc3ccccc3OCCO)CC2)c1,inactive: -9.07%
